# Measurements reported in article PMC12136788.
# The other results are listed elsewhere or left out.
# T1: UNK ZnF1-3 (human, UniProt Q9C0B0 31-174)
# T1 sequence: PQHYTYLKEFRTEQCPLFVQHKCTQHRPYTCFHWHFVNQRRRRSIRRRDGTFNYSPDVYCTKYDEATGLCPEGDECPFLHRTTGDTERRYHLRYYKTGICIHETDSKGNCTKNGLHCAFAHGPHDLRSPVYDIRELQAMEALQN
# B1: chr1:154963231:154963232:+_ENSMUSG00000042751_ENSMUST00000043313|mus_mus|motif|central (ssRNA)
# RNA: GGGAGUUCUACAGUCCGACGAUCGGCUCUGCCUUCUUUCCUGGAUGUGGCCCUCCGCACUUACGAGUGCUGAGACUGGCGGUAGUGUCCUAUCAGAAGGGAAGUAAACCACAGGAGAGCAUCAAGACUACAAACAAACAAACACAACAGAGGAUUGAGCAUCA
# B2: chr14:66974463:66974464:+_ENSMUSG00000022044_ENSMUST00000074523|mus_hu|mus_mus_mus_hu_False|68_88 (ssRNA)
# RNA: GGGAGUUCUACAGUCCGACGAUCUUGUAGGACGACUUAUUCAGGGGAUCAGACAAGAAGCAGGAGCAGAACAGAGACACCAGCGGGAGCUCCUUCAUCUUCUCUUUGUAGGCAGCAAGGGUCAUGUUUCUGGGAUCUGGUGGCCAACAGAGGAUUGAGCAUCA
# B3: chr16:57506169:57506170:-_ENSG00000125170_ENST00000340099|hu_mus|FALSE|FALSE (ssRNA)
# RNA: GGGAGUUCUACAGUCCGACGAUCCUGCCACACAUGUGAACAGUGGUUAUUUACAAGGUCUGUUCCCACAAAUCAGAACCCUAAAGUAUUAAAAAACAGAAACACGCAACAAAAGGUUUGAUGUGAAUAGAAAGAUAGCCCUUCCAACAGAGGAUUGAGCAUCA
# B4: chr1:109605286:109605287:-_ENSG00000197780_ENST00000461096|hu_mus|hu_hu_hu_mus_True|78_88 (ssRNA)
# RNA: GGGAGUUCUACAGUCCGACGAUCAAGUUUCAGAGUAACAUUCAGUAUACUUAAAUCCAAUUGUAAUCCUUAUUAUAAGCUAAGCAGAAUAAUAAUUUAAUACCGUAAGUGAACUACACACAAAGCCUGAACCGCGAAAAUGGUCAACAGAGGAUUGAGCAUCA
# B5: chr6:67234108:67234109:+_ENSMUSG00000036371_ENSMUST00000042990|mus_mus|motif|central (ssRNA)
# RNA: GGGAGUUCUACAGUCCGACGAUCCUACCAAUACAUUUCUAAAUACAAAACUGACUAACAUAUUUUGUUACUUCUGUGUAGCGGGAGAAGUUCGUUUUCAAAACAGAUAAAAUUCAGUCUUUAGGUGUGAAUGGUAUGAAUGACCAACAGAGGAUUGAGCAUCA
# B6: chr11:69480760:69480761:-_ENSMUSG00000059796_ENSMUST00000163666|mus_hu|motif|central (ssRNA)
# RNA: GGGAGUUCUACAGUCCGACGAUCUUUUGGGAGAAGAGCCGGCGCCUGGGGCAAGAGCCUACCCCAAAGAAAAGGGUGUCGGAAAUGUUCACGGUUCCUUCUUUUGCCUCAAAAAGUGACAUUUAUUCAAAGAAAAAAAAUGACCAACAGAGGAUUGAGCAUCA
# B7: chr16:13835293:13835294:+_ENSMUSG00000022681_ENSMUST00000136618|mus_hu|motif|central (ssRNA)
# RNA: GGGAGUUCUACAGUCCGACGAUCAGAAAACAGUGUGUGAGCUGGAGAUGGGUGUUUUUUUAAAAACAUCAAGGUAGAUCGGAUAUGUUCAACAAAGUGGGGUGGCUCAGCCAGAGGCGAAGUGGAAAGAUUCUCUAGUAUUUGCAACAGAGGAUUGAGCAUCA
# B8: 20142796_20142916_1202_CDS_ENSG00000114166_ENST00000263754|human|control|control (ssRNA)
# RNA: GGGAGUUCUACAGUCCGACGAUCUCGCAGUCUUCGUUGAGAUGGUGCCUCCAGAUGCCAAUAGUUGAUGCGGUUUAGGAACAUUUUUGCCAACUCAACUAUUGUUUGCCUUUCUUUUGCUGGCAGGUGACUAAAUUUGUACUGCAACAGAGGAUUGAGCAUCA
# B9: chr2:217001844:217001845:+_ENSG00000079246_ENST00000392132|hu_hu|hu_hu_hu_mus_False|38_98 (ssRNA)
# RNA: GGGAGUUCUACAGUCCGACGAUCACCAACUUGAGGAUUAGCUCUUUUGUCAUAAGCAUAUCGGACGAUGGCGACCAUGUUUAACUCAUCCAAAGCAUGAAUCAGGGAGGAAAGGGCAACAGCUGCCGCCUCAUCAUCCUUUGCCAACAGAGGAUUGAGCAUCA
# B10: chr5:31101443:31101444:+_ENSMUSG00000029168_ENSMUST00000114729|mus_mus|motif|central (ssRNA)
# RNA: GGGAGUUCUACAGUCCGACGAUCUGGUUUUUGGGUCAAUAUAAGAGAUGCCAUUGUCACGGCAAUGGCUUGACAAGCAACCGGCUGUGGACUCCUAGCACUACACAUACACACACGCACACACACACUGUAGCACAAUUUUCUCAACAGAGGAUUGAGCAUCA
# B11: chr3:33863462:33863463:+_ENSG00000170248_ENST00000307296|hu_hu|motif|central (ssRNA)
# RNA: GGGAGUUCUACAGUCCGACGAUCUGCAAUUUGGCUAGCUAAGGCUGCACAAUUGAACAACACACAGCUCUUUUCAUAUCCGGAGCUUGCAAGAGCCAGUUUUACAGAGCCUCCAAAAAGUGAACCUUUAUCGAAAGCAUCCUUCAACAGAGGAUUGAGCAUCA
# B12: chr3:148802587:148802588:-_ENSG00000071794_ENST00000310053|hu_mus|hu_hu_hu_mus_False|28_108 (ssRNA)
# RNA: GGGAGUUCUACAGUCCGACGAUCUCCAACCACAUGACCUCUCAUAGUUCCAAAUAAAACCAAAUCUUGCUCUUCAUCACUCGUUAGGAAGUCAUCUGGAGGAAUAACAUCUUGGAAUUCAAAAUGUGGCAAGAAAGUUGAGUACAACAGAGGAUUGAGCAUCA
# B13: chr17:66251843:66251844:+_ENSG00000196704_ENST00000359783|hu_hu|FALSE|FALSE (ssRNA)
# RNA: GGGAGUUCUACAGUCCGACGAUCAAAUAUGUGUCCGAUCUCAUGGGUUAAAGUCUUACAGGAUCGAAGUAGUAAAACACUAGUUAUUUCUGGAAUAUAAUAGUUGUCGAAAAUUGAAUAGUCACUUGAAGAUGUUUUCUUGAGCAACAGAGGAUUGAGCAUCA
# B14: chr8:95844298:95844299:+_ENSG00000164941_ENST00000520526|hu_hu|motif|central (ssRNA)
# RNA: GGGAGUUCUACAGUCCGACGAUCCUAGAGUUCUCAUCGUAUGGACAUAAAGAUCCUUGUUUAAUUUUAGGGCUGCUUCGGGUACCAAAAUAGAAUCAGCAGCUUGUUCUUUGAGCACUUUCAAAAUGUUUUCUGUUAGCUCUUCAACAGAGGAUUGAGCAUCA
# B15: chr7:54823571:54823572:-_ENSG00000132432_ENST00000352861|hu_mus|hu_hu_hu_mus_False|1_28 (ssRNA)
# RNA: GGGAGUUCUACAGUCCGACGAUCUCCCAUGAUAGCAAAUCCUAUAGCUGUAGCCAUGGCAAUCUUCUGGAAUUCUUUUCUGUCGGGUUUGGUGCAUCUUUUAACCAGCCGAAUGGAGUCCUUUACAAACUGCCGGCUUGGCUCCAACAGAGGAUUGAGCAUCA
# B16: chr11:46405157:46405158:+_ENSG00000110492_ENST00000395566|hu_hu|hu_hu_hu_mus_False|58_58 (ssRNA)
# RNA: GGGAGUUCUACAGUCCGACGAUCCCCUCCCCACUUUGGGCACUUGGUGUGGGCGUGAGAGGACAGGCGUGAUUGACAAAGCUAACGGGAAGACAAAAGGCACUGGUGGGUUAUAUCUUGGGCCUGUGGGAGAGGAGGGCUCCGCAACAGAGGAUUGAGCAUCA
# B17: chr2:115689334:115689335:-_ENSMUSG00000027210_ENSMUST00000074285|mus_mus|motif|central (ssRNA)
# RNA: GGGAGUUCUACAGUCCGACGAUCGCUCUUUGAAGAACAGUCCCCCAAAAUCAUAAUAAGAAUUGGCUUAUGAAGCACAAACGGUAAAGAUCUGUUUGAAACUAAAGGACACAUGGACGGGGGGAACAAAGGCCGGGCAUGAAACAACAGAGGAUUGAGCAUCA
# B18: chr1:163117127:163117128:-_ENSG00000143248_ENST00000313961|hu_mus|hu_hu_hu_mus_False|98_108 (ssRNA)
# RNA: GGGAGUUCUACAGUCCGACGAUCUGCGGGUUAUUAUGGAGGAAAUAUCACAGGGCAACUUUUGGAAGCCUGACCAGAUGACUACUUGAUUAGCUCCUUAUAAAAUUCAGAGCGCACAAAGCGGGGCAGAGAAUCCUUCUCCAUCAACAGAGGAUUGAGCAUCA
# B19: 139256783_139256903_4521_3pUTR_ENSG00000064393_ENST00000406875|human|control|control (ssRNA)
# RNA: GGGAGUUCUACAGUCCGACGAUCCUACUAGGGUGUCUGUGACGACCGCUAGCCCUACGCUACGCGACUAGGGGUGGAUUCAAAGAGAAAAUACAUUUUCAGAAAAGAAAAAAACCUAAAGUUUGCAACACACAUUAUUAAUGACAACAGAGGAUUGAGCAUCA
# B20: chr3:176767854:176767855:-_ENSG00000177565_ENST00000430069|hu_hu|hu_hu_hu_mus_False|38_68 (ssRNA)
# RNA: GGGAGUUCUACAGUCCGACGAUCGACAUCCUUGUUACUGGGCACGUCCUGCCCUCCUUCCCGUAUGCAAUGUCUAAGCACGAGCUGCGUAGGGCCACUGGUGCUGUUCUCACUGAGGUUCCAGAUUCUUGCCGUGGAGUCUCCCAACAGAGGAUUGAGCAUCA
# B21: chr2:160605324:160605325:+_ENSG00000136536_ENST00000409591|hu_mus|FALSE|FALSE (ssRNA)
# RNA: GGGAGUUCUACAGUCCGACGAUCUCUUGAAGGUGCACUUUUAGCUUUAUCAUUUUUCCCAUCAGUUGAAUUCCAACCAGAAGGAAUAAUAUCUACAGUAAUCAUGACAUUGUCAGCCAGAUUACUGCCGAGUGCUGGUGGGACCAACAGAGGAUUGAGCAUCA
# B22: chr4:56736951:56736952:+_ENSG00000090989_ENST00000381295|hu_mus|FALSE|FALSE (ssRNA)
# RNA: GGGAGUUCUACAGUCCGACGAUCGUUGCUCUCAGAGAUCUGAUCCAUCUGCUCUUUCACACUUUGGAGCAUCUCCUCGUAACUGCUCAGUUUCAGUUCAAUCUGGUCCACCUCCGUUAGCGCCUCAUCCAGCAACUGCAUCAGCAACAGAGGAUUGAGCAUCA
# Biological target: T1, UNK ZnF1-3
# Experiment: nsRBNS (natural sequence RNA bind-n-seq); RBNS binding buffer (assumed for nsRBNS): 25 mM Tris pH 7.5, 150 mM KCl, 3 mM MgCl2, 0.01% Triton X-100, 500 ug/ml BSA, 20 U/ml SUPERase-In, 4 C; UNK is unkempt and MSI1 is Musashi-1; names of the RNAs are library labels; protein concentration not given here; high values mean tight binding
row,Binder,binding signal [enrichment R]
1,B1,1.29
2,B2,1.95
3,B3,2.26
4,B4,0.984
5,B5,1.15
6,B6,1.25
7,B7,2.29
8,B8,0.569
9,B9,1.8
10,B10,1.21
11,B11,1.01
12,B12,1.31
13,B13,1.41
14,B14,0.856
15,B15,0.717
16,B16,2.82
17,B17,2.16
18,B18,1.56
19,B19,0.996
20,B20,0.588
21,B21,0.628
22,B22,0.946
